# In all, about 120,000 compounds went through this assay and fewer than 10 were called active. This list was built around the results that the source calls inconclusive (neither active nor inactive); the mix of calls is not that of the screen. Calls follow the shape of the dose curve; as a rule, active = well fitted curve in the direction sought with a large enough effect in the signal ratio (not every such curve was filed as active); inconclusive = small, poorly fitted or top-dose-only effect, or a change in a side signal; inactive = no such curve, though single readings can be large or run the other way; the % refers to the signal ratio. No potency is given beside an inconclusive call; the fits are too rough.
# Target: Inositol monophosphatase 1 (Rattus norvegicus) (UniProt P97697)
# Test: qHTS Assay for Identifying the Cell-Membrane Permeable IMPase Inhibitors;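 also: cells stimulated with carbachol in lithium chloride buffer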;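 as to inhibition (IP1 accumulation): plate controls were DMSO basal wells for no effect and reference inhibitor wells for full effect; higher means more IMPase inhibition seen as more IP1 and lower FRET ratio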
# Details: CHO-M1 cells, HTRF TR-FRET ratio; Potency: IP1 accumulation unless noted; inhibition (IP1 accumulation): at 46.1 µM (top of the series) unless noted
# Chain of UniProt P97697 (P97697 whole entry, looked up): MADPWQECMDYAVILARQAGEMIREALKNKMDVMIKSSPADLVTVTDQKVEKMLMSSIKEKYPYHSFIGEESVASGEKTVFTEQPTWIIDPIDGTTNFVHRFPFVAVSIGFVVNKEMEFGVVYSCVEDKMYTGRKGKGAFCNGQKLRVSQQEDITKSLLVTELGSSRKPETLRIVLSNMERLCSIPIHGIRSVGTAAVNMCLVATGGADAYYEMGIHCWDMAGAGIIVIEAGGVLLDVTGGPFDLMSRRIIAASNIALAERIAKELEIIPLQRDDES
SMILES,inhibition (IP1 accumulation),Potency
CC(=O)c1cccc(NC(=O)Cn2nc(C(F)(F)F)c3c2CCC3)c1,inconclusive: -2.85% [phenotype inactive],–
CCOc1ccc2nc(NS(C)(=O)=O)sc2c1,inactive: -9.86%,–
CC(=O)c1sc(NC(=O)C(C)C)nc1C,–,"inconclusive [falling, partial curve]"
CC(C(=O)NC1CCCc2ccccc21)N1CCN(Cc2ccc3c(c2)OCO3)CC1 (stereo not drawn),inactive: -0.855%,–
O=c1c2c(-c3cccs3)csc2[nH]c(=S)n1-c1ccccc1,–,"inconclusive [falling, partial curve]"
Cc1nnc(N2C(=O)c3oc4ccccc4c(=O)c3C2c2ccc(C(C)(C)C)cc2)s1 (stereo not drawn),inactive: -0.65%,–
O=C(NCc1cccs1)c1ccc(Cl)s1,inactive: 10.2%,–
CCOC(=O)c1oc2nc(C(C)C)c3c(c2c1N)CC(C)(C)OC3,–,"inconclusive [inhibitor, partial curve, poor fit]"
O=C(Oc1cc2oc(=O)c3c(c2cc1Cl)CCCC3)c1ccco1,–,"inconclusive [inhibitor, single point]"
CCNC(=O)NC(=O)CSc1nc2ccccc2n1CCOC,inconclusive: -18.9% [phenotype inactive],–
N#Cc1c(-c2ccccc2)nc(N2CCOCC2)[nH]c1=O,–,"inconclusive [inhibitor, partial curve]"
COc1ccc(/C=C2\OC(=O)c3c(OC)cccc32)cc1OC,–,"inconclusive [inhibitor, partial curve]"
CCc1ccc2oc(-c3cc(NC(=O)c4cc(OC)c(OC)c(OC)c4)ccc3O)nc2c1,–,"inconclusive [falling, partial curve]"
CC(=O)/C=C(\C)Nc1ccc(-c2cnc(-c3ccccc3)o2)cc1,–,"inconclusive [inhibitor, single point]"
CCOC(=O)c1cc(C(=O)c2cccs2)n2ccc(C(C)=O)cc12,–,"inconclusive [falling, single point]"
O=C(Nc1ccon1)c1ccc2c(c1)OCO2,–,"inconclusive [inhibitor, single point]"
Cc1ccc(S(=O)(=O)N2CN(Cc3ccco3)c3nc4ccccc4nc32)cc1C,inconclusive: -12.4% [phenotype inactive],–
O=C(COc1ncnc2ccc(Br)cc12)Nc1ccc(N2CCOCC2)cc1,inactive: 0.263%,–
Cc1cc(C)c2c(c1)c(C)cc1nnc(SCC(=O)c3cccs3)n12,inconclusive: 13.3% [phenotype inactive],–
COc1ccc(S(=O)(=O)N2CCc3ccccc32)cc1C(=O)OCc1c(C)noc1C,inactive: 8.58%,–
C=CCNc1nc(-c2c(C)nc3sccn23)cs1,inconclusive: 14.4% [phenotype inactive],–
Cc1ccc2nc(NCc3ccccc3Cl)c3nnnn3c2c1,inactive: 0.595%,–
Cc1noc(NS(=O)(=O)c2ccc(N)cc2)c1C,inconclusive: -5.21% [phenotype inactive],–
CCCOc1ccc(/C(O)=C2\C(=O)C(=O)N(CCCOC)C23C(=O)N(C)c2ccccc23)cc1 (stereo not drawn),–,"inconclusive [inhibitor, partial curve]"
Cc1cc(NS(=O)(=O)c2ccc(NC(=O)C(CC(C)C)N3C(=O)c4ccccc4C3=O)cc2)nc(C)n1 (stereo not drawn),inactive: 1.03%,–

SMILES,inhibition (IP1 accumulation),Potency
O=C(NCc1ccccc1)c1cccc(COc2cc(Cl)ccc2Cl)c1,inactive: 16.6%,–
CCOc1ccc(-n2c(-c3ccc(OC)cc3)c[n+]3c2CCCCC3)cc1,inactive: 10.1%,–
O=C(Nc1ccc(OC(F)(F)F)cc1)c1cnc2n(c1=O)CCS2,–,"inconclusive [falling, single point]"
CCOc1cc(N(CC)CC)ccc1/C=C(/C#N)c1nc2ccccc2[nH]1,inactive: 2.85%,–
CC(C)OC(=O)c1sc2nc(-c3ccccc3)ccc2c1N,–,"inconclusive [inhibitor, single point]"
CC(C)Oc1ccc(/C(O)=C2/C(=O)C(=O)N(CCCn3ccnc3)C2c2cccnc2)cc1 (stereo not drawn),–,"inconclusive [inhibitor, single point]"
Cc1cc(Cl)ccc1OCC(=O)Nc1c(C(=O)c2ccccc2)oc2ccccc12,–,"inconclusive [inhibitor, single point]"
Cc1ccnc(NC(=O)c2ccccc2NC(=O)C(C)(C)C)c1,inconclusive: -3.08% [phenotype inactive],–
Cn1nccc1/C=C(/C#N)S(=O)(=O)c1ccccc1,inactive: 5.24%,–
CC(C)Cn1c(N)c(C(=O)COC(=O)c2ccc3c(c2)OCCO3)c(=O)n(C)c1=O,inactive: 4.97%,–
COc1ccc(C(=O)c2oc3ccccc3c2NC(=O)c2cccc(OC)c2)cc1,inconclusive: -12.9% [phenotype inactive],–
CCOc1ccc(C(=O)Nc2ccc(NC(=O)c3ccco3)c(Cl)c2)cc1Br,–,"inconclusive [falling, single point]"
Cc1cccc(-n2ncc3c(NC4CCCCC4)ncnc32)c1,–,"inconclusive [inhibitor, single point]"
O=C(C1=C(O)C(=O)N(CCOCCO)C1c1cccs1)c1cccs1 (stereo not drawn),–,"inconclusive [inhibitor, partial curve, poor fit]"
CC1CCc2c(sc(NC(=O)C3c4ccccc4Oc4ccccc43)c2C(=O)OC(C)C)C1 (stereo not drawn),inactive: -18.3%,–
CCOc1cccc(C2C(C(=O)c3ccc(C)o3)=C(O)C(=O)N2Cc2ccncc2)c1 (stereo not drawn),–,"inconclusive [falling, single point]"
Cc1ccc(C2C(C(=O)c3ccco3)=C(O)C(=O)N2c2nnc(C)s2)cc1 (stereo not drawn),–,"inconclusive [falling, single point]"
COc1cccc(-c2nnc(NC(=O)Cc3cccs3)s2)c1,–,"inconclusive [falling, single point]"
CC(=O)c1c(C)nc2ccc(Br)cc2c1C(=O)O,–,"inconclusive [inhibitor, single point]"
Cc1noc(C)c1COC(=O)Cc1ccc(Cl)c(Cl)c1,inactive: 8.65%,–
COc1nc2ccc(C)cc2cc1-c1noc(-c2ccccc2)n1,–,"inconclusive [falling, single point]"
COc1cccc2c(=O)c(C(=O)O)c[nH]c12,–,"inconclusive [inhibitor, single point]"
Cn1cc(SCC(=O)NCc2ccc3c(c2)OCO3)c2ccccc21,inconclusive: 8.67%,–
COc1ccccc1-c1n[nH]c(=S)o1,–,"inconclusive [falling, partial curve]"
Cc1ccc(S/C=C\C(=O)c2ccccc2)cc1,inactive: 2.23%,–

SMILES,inhibition (IP1 accumulation),Potency
COc1ccc(N2CCC(CNC(=O)Nc3ccc(OC)cc3OC)C2)cc1 (stereo not drawn),inactive: 13.3%,–
O=C(CSc1nc(-c2ccccc2)nc2ccccc12)Nc1nccs1,–,"inconclusive [inhibitor, single point]"
CCCN1C(=O)C2(/C(=C(\O)c3ccc4c(c3)OCCO4)C(=O)C(=O)N2CCCOC)c2ccccc21 (stereo not drawn),–,"inconclusive [inhibitor, partial curve, poor fit]"
CCOc1ccc(C2C(C#N)=C(N)SC(N)=C2C#N)cc1OC,–,"inconclusive [inhibitor, single point]"
Cc1ccccc1-c1n[nH]c(=S)o1,–,"inconclusive [falling, partial curve]"
CCCc1ccc(OCc2nc(-c3ccc(NC(=O)c4ccco4)cc3)no2)cc1,inactive: 1.21%,–
O=C(C1CCCN(Cc2ccccc2Br)C1)N1CCCCC1 (stereo not drawn),inconclusive: -9.54% [phenotype inactive],–
COc1cccc2c(=O)n(CC(=O)Nc3ccccc3)ccc12,–,"inconclusive [inhibitor, single point]"
COc1cc(CNCCc2c[nH]c3ccccc23)ccc1OCc1ccccc1F,inconclusive: -24.8% [phenotype inactive],–
CC(=O)c1ccc(-c2nc3ccccc3n2C)o1,–,"inconclusive [inhibitor, single point]"
O=C1C(Cc2ccccc2)S/C(=N/N=C/c2ccco2)N1c1ccccc1 (stereo not drawn),inactive: 18.2%,–
CCc1cc2cc(C(=O)Nc3ccc(C)cc3)sc2s1,–,"inconclusive [inhibitor, single point]"
O=C(Nc1ccc2oc(-c3cccnc3)nc2c1)c1ccccc1F,–,"inconclusive [rising, single point]"
CCc1c(C(=O)O)[nH]c2ccc(Br)cc12,–,"inconclusive [falling, partial curve]"
COCCN1C(=O)c2ccc(C(=O)NCc3cccnc3)cc2C1=O,inactive: 7.64%,–
Cc1ccc(-n2c(=S)[nH]c3c(oc4ccccc43)c2=O)cc1C,–,"inconclusive [falling, partial curve]"
COC(=O)c1ccc(OCc2cc(=O)n3ccsc3n2)cc1,–,"inconclusive [inhibitor, single point]"
Cc1ccccc1-n1c(C)cc(/C=N/NC(=O)c2ccncc2)c1C,inactive: 4.04%,–
Cn1c(=O)c2c(SCc3cccc(C(F)(F)F)c3)nc(-c3ccco3)nc2n(C)c1=O,–,"inconclusive [inhibitor, single point]"
O=C1CC(c2cccs2)c2cc3c(cc2N1)OCO3 (stereo not drawn),inconclusive: -6.9% [phenotype inactive],–
CCOC(=O)CSc1cc(C)nc(NC(C)=O)n1,inconclusive: 4.71% [phenotype inactive],–
CCCOC(=O)Nc1ccccc1C(N)=O,inconclusive: 3.98% [phenotype inactive],–
CS(=O)(=O)Nc1ccc(-c2n[nH]c(=S)n2-c2ccccc2)cc1,–,"inconclusive [inhibitor, partial curve]"
